Laboratory results taken from ChEMBL document CHEMBL1156829.
The full ranking holds about 5,400 compounds; the median of “IFI” is about 2, and the highest 2% start at about 22. The list shows a part of the results.

Test: NOVARTIS: Inhibition Frequency Index (IFI) - the number of HTS assays where a compound showed > 50% inhibition/induction, expressed as a percentage of the number of assays in which the compound was tested.
Format: functional

| Structure (SMILES) | IFI [%] |
| --- | --- |
| Cc1ccc(C(=O)C(C)[n+]2ccc(N(C)C)cc2)cc1 (stereo not drawn) | 0 |
| COCCCNC(=O)c1c(C)nc2scc(C)n12 | 0 |
| CCOC(=O)C1=C(N)OC2=C(C(=O)CC(c3ccccc3)C2)C1c1ccc(Cl)cc1Cl (stereo not drawn) | 1.18 |
| CCOc1ccc(NC(=O)c2ccc(C)o2)cc1 | 0 |
| Cc1ccc(Cn2c(C)c3cnn(CC(=O)O)c(=O)c3c2C)cc1 | 0 |
| Cc1ccc2nc(Nc3nc(O)c4ccccc4n3)nc(C)c2c1 | 0 |
| COc1cc2nc(C3CCC3)n(NC(=O)c3cccc(F)c3)c(=O)c2cc1OC | 8.33 |
| CCN(CC)CCCC(C)Nc1ccnc2cc3ccccc3cc12 (stereo not drawn) | 9.23 |
| Oc1ccc(-c2ccccc2)cc1CN1CCCCCC1 | 0 |
| CCC(c1nc2ccccc2c(=O)n1-c1cccc(Cl)c1)N(CCc1ccccc1)C(=O)c1ccc(F)cc1 (stereo not drawn) | 1.82 |
| COc1ccc(C2=C(c3ccc(OC)cc3)C3(c4ccccc4)C(=O)C2(c2ccccc2)C2C(=O)N(c4ccccc4[N+](=O)[O-])C(=O)C23)cc1 (stereo not drawn) | 0 |
| COc1cc2c(cc1OC)C(=NN=C1NC(C)(C)Cc3ccccc31)NC(C)(C)C2 | 1.64 |
| CN(CCCNc1ccnc2cc(Cl)ccc12)C(=O)CCc1ccccc1 | 3.74 |
| CN1CCN(c2nc(NN=Cc3cc(I)ccc3O)nc(Nc3ccc([N+](=O)[O-])cc3)n2)CC1 | 5.26 |
| CN(CCCNc1ccnc2cc(Cl)ccc12)C(=O)C12CC3CC(CC(C3)C1)C2 | 3 |
| COc1ccccc1N1CCN(c2ccc(NC(=O)c3ccc(Br)cc3)cc2C(=O)NCCCN(C)C)CC1 | 3.09 |
| CCN1CCN(c2cc(C)c3cc(NC(=O)/C=C/c4ccc(OC)cc4)ccc3n2)CC1 | 0 |
| CCOC(=O)c1c(NC(C)=O)sc2c(O)c(CNC3CCCCC3)ccc12 | 0 |
| COC(=O)[C@@H]1C[C@@H](NC(=O)c2ccc(OC)cc2OC)CN1C/C(C)=C/c1ccccc1 | 1.74 |
| Cc1c2c(n3c(nc4ccccc43)c1C#N)N(CCN(C)C)CC2 | 0 |
| O=C(C[n+]1ccc(/C=N/O)cc1)NC12CC3CC(CC(C3)C1)C2 | 0 |

| Structure (SMILES) | IFI [%] |
| --- | --- |
| CCOc1ccc(Nc2cc(=O)oc3ccccc23)cc1 | 0 |
| COc1cc(NC2=CC(=O)C(=O)c3ccccc32)c(OC)cc1Cl | 13.5 |
| CC(C)CNc1nc(NCCCN(C)C)ncc1C(=O)NCc1ccccc1 | 2.02 |
| Cc1[nH]c2ccccc2c(=O)c1Br | 0 |
| COC(=O)c1c(S(=O)(=O)NCCN(C)C)sc2c1CCN(CC(C)c1ccccc1)C2 (stereo not drawn) | 2.91 |
| O=C(O)CSc1nc2c(ccc3nsnc32)[nH]1 | 0 |
| Cc1ccc(C)c(Nc2nc3c(s2)CCCC3)c1 | 0 |
| COc1cccc(CN2CCN(C3CCCC(C)C3)CC2)c1OC (stereo not drawn) | 0 |
| Cn1c(C(=O)c2cccc3ccccc23)nc2ccccc21 | 2.44 |
| N=c1c2c(n(Cc3ccc(Cl)cc3)c3c1CCC3)CCCC2 | 14.3 |
| COC(=O)[C@@H]1C[C@@H](NC(=O)c2ccc(OC)cc2)CN1CC(c1ccccc1)c1ccccc1 | 1.65 |
| O=C(NNC(=S)NCc1ccco1)C(F)(F)F | 2.02 |
| O=C(NCSC1=NCCS1)c1ccccc1 | 0 |
| O=C(NC1CCN(CC(O)CN(Cc2ccccc2)S(=O)(=O)c2ccccc2)C1)c1ccco1 (stereo not drawn) | 2.94 |
| CC(NCc1cc(-c2ccccc2)ccc1O)c1cccc2ccccc12 (stereo not drawn) | 1.7 |
| COc1ccc(OC)c(-c2csc(N(CCCN(C)C)C(=O)Cc3ccccc3)n2)c1 | 9.28 |
| O=C(Cc1ccsc1)NC1CCN(CC(O)CN(Cc2ccccc2)S(=O)(=O)c2ccccc2)C1 (stereo not drawn) | 3.03 |
| COc1ccc(CNCCN2CCN(c3ccccc3)C[C@@H]2Cc2ccc(O)cc2)cc1 | 2.63 |
| CCOC(=O)C1=C(C)NC2=C(C(=O)C(C(=O)OCC)C(c3ccccc3OC)C2)C1c1ccc([N+](=O)[O-])cc1 (stereo not drawn) | 6.98 |
| CC(C)(C)C(=O)NCCNc1ccc([N+](=O)[O-])cc1C(F)(F)F | 0 |
| Cc1ccc(S(=O)(=O)NNC(=O)C2CCC(c3ccccc3)CC2)c2nsnc12 (stereo not drawn) | 0 |

| Structure (SMILES) | IFI [%] |
| --- | --- |
| COc1cc2nc(NC(=N)N)nc(C)c2cc1OC | 3.15 |
| O=C(Cc1ccccc1)NC(c1ccc(Cl)cc1)c1ccc2cccnc2c1O (stereo not drawn) | 9.38 |
| CN(C)CCCNc1cc(-c2ccccc2)nc2ccccc12 | 3.85 |
| CC(=O)c1c(C)n(CC(=O)Nc2cccc(C)c2)c2ccccc12 | 0 |
| O=C(CC(=O)N1CCOCC1)Nc1ccc2nc3n(c(=O)c2c1)CCCCC3 | 7.69 |
| CC1=NOC(=O)/C1=C\c1cccs1 | 2.4 |
| Cc1ccc2c(c1)C(C)(c1ccc(Cl)cc1)CC(C)(C)N2C(=O)COc1ccc2ccccc2c1 (stereo not drawn) | 0 |
| COc1ccc(-c2nnc(NC(=O)CCN(CCc3ccc(OC)c(OC)c3)C(=O)c3cccc4ccccc34)s2)cc1 | 3.81 |
| COC(=O)C1=C(C)NC2=C(C(=O)CC(c3ccc(OC)c(OC)c3)C2)C1c1ccc([N+](=O)[O-])cc1 (stereo not drawn) | 1.19 |
| COc1ccc2c(c1)-c1c(ssc1=S)C(C)(C)N2C(=O)c1cccc(Cl)c1 | 0 |
| Cc1ccc(CNC(=O)CSc2nc3ccsc3c(=O)n2CCCCCC(=O)NCCc2ccccc2)cc1 | 0 |
| CC[C@@H](C(=O)[C@@H](C)[C@@H](O)[C@H](C)CCc1ccc(C)c(O)c1C(=O)O)[C@H]1O[C@](CC)([C@H]2CC[C@](O)(CC)[C@@H](C)O2)C[C@@H]1C | 26.9 |
| O=C(Cn1c(=O)oc2cc(S(=O)(=O)N3CCCC3)ccc21)Nc1cccnc1 | 0 |
| CCCS(=O)(=O)c1c(S(=O)(=O)CCC)c2ccc(C(C)=O)cn2c1C(=O)c1ccc(C)cc1 | 3.03 |
| Cc1ccc(NC(=O)N2CCN(C(=O)c3nc(-c4ccccc4)nc(C)c3C(=O)OC(C)C)CC2C)c(C)c1 (stereo not drawn) | 2.88 |
| CC(C)CNc1nc(NCCC2CCCN2C)ncc1C(=O)NCc1ccccc1 (stereo not drawn) | 1.91 |
| CC(C)CN1C(=O)c2ccccc2C(C(=O)Nc2ccc(F)cc2F)C1c1cccs1 (stereo not drawn) | 6.06 |
| Brc1ccc(C=NNc2nc3ccccc3[nH]2)cc1 | 9.02 |
| Cc1ccc(C)c(NC(=O)C2CCCN(c3nnc(N4CCCC4=O)s3)C2)c1 (stereo not drawn) | 0 |
| CCN1CCN(c2cc(C)c3cc(NC(=O)c4cncc(Br)c4)ccc3n2)CC1 | 3.33 |
| CCCCCCCCNC(C)C(O)c1ccc(SC(C)C)cc1 (stereo not drawn) | 3.11 |
